In the supplement of paper PMC4723716 one finds viability index data, which are given here for 35 compounds.

± gives the uncertainty stated by the source. The full ranking holds about 9,900 compounds; the median of “viability index relative to DMSO control” is about 1, and the lowest 2% start at about 0.85. Some of the results follow.

This assay deals with Plasmodium falciparum NF54 stage V gametocytes. Briefly: viability index relative to DMSO control (fraction); higher = less gametocyte killing. Particulars: 2.5 µM, library set: Broad Institute DOS, incubation time: 72 h. An outline of the steps: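 Compound at 2.5 µM was incubated for 72 hr at 37°C under low oxygen with P. falciparum NF54 stage V gametocytes (0.75% gametocytemia, 1.25% hematocrit, 10 µl, serum-free screening medium) in 1,536-well plates. Staining used 3 µl of 2.5 µM MitoTracker Red CMXRos plus 0.13% saponin for one to two hours, and red particles of 20–70 µm2 were counted in one imaged field per well. Each viability index is that count relative to the plate mean of solvent-only wells.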

In turn, `C[C@@H]1CN([C@@H](C)CO)C(=O)Cc2cc(N(C)C)ccc2O[C@@H]1CN(C)C(=O)NC1CCCCC1` came in with a viability index of 1.01 ± 0.032.
As to `O=C(Nc1ccccc1F)N[C@H]1CC[C@@H](CCNC(=O)C2CC2)O[C@H]1CO`, the viability index turned out to be 1.09 ± 0.07.
Next, `COCC(=O)N1CC[C@@H]2[C@@H](CO)Nc3ccc(C#Cc4ccc(F)cc4)cc3[C@@H]21`: 1.09 ± 0.021; `COCC#Cc1ccc([C@H]2[C@H]3CN(C(=O)NC4CCCC4)CCCCN3[C@H]2CO)cc1`: 0.952 ± 0.088.
Next, `CC(C)NC(=O)N1[C@@H](CO)[C@@H](c2ccccc2)C12CN(C(=O)Cc1cccnc1)C2`: 1.13 ± 0.022; `CCCNC(=O)N1CC(=O)N2[C@H](CO)[C@H](c3ccc(C#CCC4CCCC4)cc3)[C@H]2C1`: 1.01 ± 0.12; `CN1C[C@H]2[C@@H](c3ccccc31)[C@@H](CO)N2Cc1ccccc1Cl`: 1.08 ± 0.043.
Next, `CO[C@H]1CN(C)C(=O)c2cc(NS(=O)(=O)c3cccc(Cl)c3)ccc2OC[C@H](C)NC[C@@H]1C`: 1.044 ± 0.0029; `CC(C)C#Cc1ccc([C@@H]2[C@@H](CO)N3C(=O)CN(C(=O)NC4CCCC4)C[C@H]23)cc1`: 1.14 ± 0.049.
Turning to `O=C(C[C@@H]1CC[C@H]2[C@@H](COC[C@@H](O)CN2Cc2cccc(Cl)c2)O1)NCc1cccc(F)c1`, the viability index stood at 1.09 ± 0.088.
Then `C[C@H](CO)N1C[C@H](C)[C@H](CN(C)S(=O)(=O)c2ccc3c(c2)OCCCO3)OCc2cnnn2CCCC1=O`, with 1.05 ± 0.073; and `O=S(=O)(c1ccccc1)N1CCCCN2[C@H](CO)[C@@H](c3ccc(C#CC4CCCC4)cc3)[C@H]2C1`, with 1.03 ± 0.056; and `CCCNC(=O)N1[C@H](C#N)[C@@H](c2ccccc2-c2cccc(C)c2)[C@@H]1CO`, with 0.977 ± 0.11.
Then `O=C(C[C@@H]1CC[C@H]2[C@@H](COC[C@@H](O)CN2C(=O)Nc2cc(Cl)cc(Cl)c2)O1)N1CCOCC1`, with 1.08 ± 0.055.
Next, `O=C(C[C@H]1CC[C@H](NS(=O)(=O)c2ccccc2F)[C@H](CO)O1)NCCCN1CCOCC1`: 0.896 ± 0.1; `C[C@H]1CN([C@@H](C)CO)C(=O)CCCn2cc(nn2)CO[C@H]1CN(C)Cc1ccccc1`: 1.03 ± 0.045; `O=C(Nc1ccc2c(c1)[C@H]1C[C@@H](CC(=O)N3CCOCC3)O[C@@H](CO)[C@H]1O2)Nc1ccccc1F`: 1.15 ± 0.057.
Compound `COc1ccc(S(=O)(=O)Nc2ccc3c(c2)C(=O)N([C@@H](C)CO)C[C@H](C)[C@@H](CN(C)C(=O)Nc2c(C)noc2C)OCCCC[C@@H](C)O3)cc1` had a viability index of 1.06 ± 0.067.
In turn, `C[C@@H]1CCCCO[C@H](CN(C)C(=O)Nc2ccc3c(c2)OCO3)[C@@H](C)CN([C@@H](C)CO)C(=O)c2cc(NS(=O)(=O)c3ccc(F)cc3)ccc2O1` gave a viability index of 1.02 ± 0.07.
Then `C/C=C/c1ccc([C@H]2[C@@H](CO)N(Cc3cccnc3)C23CN(C(=O)CC)C3)cc1`, with 1.02 ± 0.063; and `N#C[C@H]1[C@H](c2ccc(-c3cccnc3)cc2)[C@H](CO)N1C(=O)Nc1ccc(F)cc1`, with 1.04 ± 0.022.
Next, `COc1ccc2c3c([nH]c2c1)[C@H](CO)N(C[C@]31CN(Cc2ccccc2)C1)C(=O)CN1CCOCC1`: 0.878 ± 0.064; `Cc1cccc(S(=O)(=O)N2C[C@@H]3N[C@H](C2)[C@@H]3c2ccc(-c3cncnc3)cc2)c1`: 1.12 ± 0.077.
Next, `COCc1cn(CC[C@@H]2CC[C@H](NC(=O)Nc3c(C)noc3C)[C@H](CO)O2)nn1`: 0.951 ± 0.12; `O=C(c1ccccc1)N1[C@H](CO)[C@@H](c2ccccc2)C12CN(Cc1nccs1)C2`: 1.05 ± 0.13; `O=C(C[C@@H]1CC[C@H]2[C@@H](COC[C@H](O)CN2Cc2ccc(C(F)(F)F)cc2)O1)N1CCc2ccccc2C1`: 1.05 ± 0.035.
`COc1ccccc1NC(=O)N1CCCCN2[C@H](CO)[C@H](c3ccc(-c4cccc(C#N)c4)cc3)[C@@H]2C1` gave a viability index of 1.01 ± 0.011.
For the compound `C[C@@H]1CCCCO[C@@H](CN(C)Cc2ccc(Cl)c(Cl)c2)[C@H](C)CN([C@H](C)CO)C(=O)c2cc(NS(=O)(=O)c3cccs3)ccc2O1`, the viability index came out at 0.982 ± 0.087.
Then `COC(=O)C[C@H]1C[C@H]2c3cc(N)ccc3O[C@H]2[C@@H](CO)O1`, with 0.953 ± 0.038; and `O=C(Nc1ccc2c(c1)[C@H]1C[C@@H](CC(=O)N3CCc4ccccc4C3)O[C@H](CO)[C@H]1O2)c1ccc2c(c1)OCO2`, with 1.04 ± 0.093.
For `Cc1noc(C)c1S(=O)(=O)Nc1ccc2c(c1)C(=O)N([C@H](C)CO)C[C@@H](C)[C@H](CN(C)C(=O)NC1CCCCC1)O2`, the viability index was found to be 1.01 ± 0.037.
Regarding `CN(C)C(=O)c1cccc(-c2ccc([C@H]3[C@H]4CNC[C@@H]3N4Cc3ccc4c(c3)OCO4)cc2)c1`, the viability index was 0.999 ± 0.025.
Next, `CN1C(=O)c2cc(NC(=O)Cc3cccs3)ccc2OC[C@@H]2O[C@H](CC(=O)NCCc3ccncc3)CC[C@H]21`: 1.17 ± 0.17.
Next, `C[C@H](CO)N1C[C@H](C)[C@@H](CN(C)Cc2ccc(Oc3ccccc3)cc2)OCc2ccccc2-c2ccccc2C1=O`: 0.801 ± 0.016; `O=S(=O)(NC[C@@H]1[C@@H](c2ccccc2)[C@@H](CO)N1CC1CC1)c1ccccc1`: 0.898 ± 0.14.
